# Results from publication PMC4336329 (PLoS ONE, 2015).
# Among all 310,000 compounds or so, about 14,000 (4.5%) showed an effect of 50% or more. Effects have a minus sign here. This is one part of the list.
# Target: human ether-à-go-go-related gene (hERG) potassium channel (human, UniProt Q12809)
# Assay: primary screen, population patch clamp on CHO cells stably expressing hERG
# 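Also: peak tail current of the secondary pulse compared with the same well before compound.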
# human ether-à-go-go-related gene (hERG) potassium channel, sequence (Q12809 whole entry, looked up): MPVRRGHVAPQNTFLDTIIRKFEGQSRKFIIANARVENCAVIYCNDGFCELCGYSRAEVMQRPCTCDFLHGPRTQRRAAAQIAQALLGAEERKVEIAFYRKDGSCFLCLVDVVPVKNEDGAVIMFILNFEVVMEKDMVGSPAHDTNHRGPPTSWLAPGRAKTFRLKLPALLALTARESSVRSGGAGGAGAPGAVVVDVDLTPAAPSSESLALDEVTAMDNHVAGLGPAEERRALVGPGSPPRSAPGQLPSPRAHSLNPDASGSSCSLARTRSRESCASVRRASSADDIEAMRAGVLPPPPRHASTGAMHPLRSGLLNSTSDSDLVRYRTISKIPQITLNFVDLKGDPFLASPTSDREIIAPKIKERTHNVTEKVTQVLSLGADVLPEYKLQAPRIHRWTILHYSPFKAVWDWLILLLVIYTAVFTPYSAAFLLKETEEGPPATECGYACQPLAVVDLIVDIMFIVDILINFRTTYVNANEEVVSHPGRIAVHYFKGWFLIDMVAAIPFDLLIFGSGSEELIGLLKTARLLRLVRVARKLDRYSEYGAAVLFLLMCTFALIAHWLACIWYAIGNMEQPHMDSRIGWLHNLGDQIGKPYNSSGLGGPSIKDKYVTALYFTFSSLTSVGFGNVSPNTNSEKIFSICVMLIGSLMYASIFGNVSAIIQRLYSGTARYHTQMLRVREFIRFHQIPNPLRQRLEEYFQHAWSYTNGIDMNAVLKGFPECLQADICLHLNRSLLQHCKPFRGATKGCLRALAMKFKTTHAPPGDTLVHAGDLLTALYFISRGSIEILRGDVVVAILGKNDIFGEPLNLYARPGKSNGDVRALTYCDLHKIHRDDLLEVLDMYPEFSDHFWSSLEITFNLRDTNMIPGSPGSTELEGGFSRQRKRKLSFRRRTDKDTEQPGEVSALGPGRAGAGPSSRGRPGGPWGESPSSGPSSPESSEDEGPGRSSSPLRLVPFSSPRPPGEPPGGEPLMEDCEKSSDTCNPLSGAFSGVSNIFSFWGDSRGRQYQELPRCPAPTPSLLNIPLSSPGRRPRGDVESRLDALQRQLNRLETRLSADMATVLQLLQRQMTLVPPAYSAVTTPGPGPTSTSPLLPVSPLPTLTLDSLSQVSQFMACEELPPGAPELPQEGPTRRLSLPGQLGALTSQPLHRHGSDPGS
row,SMILES,"hERG current change (%, negative = inhibition) at 10uM [%]"
1,Cc1ccc(CN2C(=O)C3CCCN3c3ncccc32)cc1 (stereo not shown),5.08
2,Cc1ccc(N2C3=C(C(=O)CC(C)(C)C3)C(c3cn(C)nc3C)C3=C2CC(C)(C)CC3=O)cc1,-10.9
3,CCCc1cc(C(=O)Nc2ccccc2C(=O)OC)no1,7.76
4,COCc1ccc(C(=O)N2CCCC(Nc3ccc(C(C)C)cc3)C2)s1 (stereo not shown),-19.5
5,O=C(Nc1ccc2nc(-c3ccccc3)oc2c1)c1ccco1,3.37
6,CC1CC(C)CN(S(=O)(=O)N2CCCC(C(=O)NCCCN3CCOCC3)C2)C1 (stereo not shown),19.1
7,COc1cc(CN2CCC(C(=O)NC3CCCC3)CC2)ccc1O.O=C(O)C(=O)O,7.8
8,CN(CCCC1CCCC1)C(=O)CC1C(=O)NCCN1Cc1ccc(F)cc1 (stereo not shown),-5.31
9,Cc1cccc(N2CCN(C(=O)C(NS(=O)(=O)c3cccs3)c3ccccc3)CC2)c1C (stereo not shown),-3.22
10,COc1cccc(NC(=O)CCCCCN2C(=O)[C@@H]3Cc4ccccc4CN3C2=O)c1,-37.7
11,N#Cc1ccccc1NC(=O)c1ccccc1OCC(=O)NCc1ccco1,3.8
12,CC1Cc2ccccc2N1C(=O)Cn1nnc(-c2ccccc2NC(=O)C2CCC2)n1 (stereo not shown),-18.3
13,CS(=O)(=O)NNC(=O)c1sccc1OCc1ncc(C(F)(F)F)cc1Cl,11.3
14,O=C(COC(=O)CCC(=O)c1ccc(F)cc1)Nc1ccc(N2CCOCC2)cc1,1.83
15,Cc1ccccc1NC(=S)N1CCCC(c2nc3ccccc3[nH]2)C1 (stereo not shown),11.5
16,Cc1ccc(CN2CCN(Cc3ccc(-n4cccn4)cc3)CC2CCO)cc1 (stereo not shown),-78.1
17,Cc1ccc(-c2nc(P(=O)(c3ccccc3)c3ccccc3)c(N3CCOCC3)o2)cc1,-38.3
18,CC(=O)N=c1sccn1CC(O)c1ccccc1 (stereo not shown),-7.22
19,COCCNC(=O)C(c1ccc(C)cc1)N(Cc1ccccc1)C(=O)CCC(=O)Nc1ccccn1 (stereo not shown),-5.43
20,COc1ccccc1C(=O)N1CCN=C1SC,5.95
21,COc1ccc(CCN2CC(C(=O)NCCN3CCCC3=O)CCC2=O)cc1 (stereo not shown),-0.377
22,CCC(C)NC(=O)c1ccccc1NC(=O)c1ccc(CSc2ccc(C)cc2)cc1 (stereo not shown),6.25

row,SMILES,"hERG current change (%, negative = inhibition) at 10uM [%]"
1,NS(=O)(=O)c1ccc(CNC(=O)c2ccccc2SCC(=O)N2CCCC2)cc1,-7.36
2,Cc1ccc(C(=O)Nc2nnc(-c3ccco3)o2)cc1,15.6
3,CCN1CCCC1CNC(=O)c1cc(S(N)(=O)=O)ccc1OC (stereo not shown),36.6
4,CCOC(=O)c1ccc(NC(=O)CC2COc3ccccc3O2)cc1 (stereo not shown),-2.92
5,CC(C)CNC(=O)/C=C/C=C/CCCC/C=C/c1ccc2c(c1)OCO2,20.7
6,COc1ccccc1NS(=O)(=O)c1cc(N/C(=N\S(=O)(=O)c2ccccc2)c2ccc(F)cc2)ccc1Cl,-4.02
7,CCCCCn1nc(C(=O)OCc2nnc(-c3ccccc3)o2)c2ccccc2c1=O,6.13
8,COc1ccc(-c2cc(=O)oc3c(C)c(OC(C)C(=O)NCc4ccccn4)ccc23)cc1 (stereo not shown),-9.16
9,CN(C)C(CNC(=O)c1cnc(Cl)c(Cl)c1)c1ccccc1 (stereo not shown),8.61
10,CCOC(=O)c1sc(NC(=O)CSc2nnc(-c3ccc(OC)cc3)n2CCOC)nc1C,-27.3
11,COc1ccc(OC)c(C(=O)NC(CC(N)=O)c2ccc(N3CCN(c4ccccn4)CC3)c([N+](=O)[O-])c2)c1 (stereo not shown),5.61
12,C=CCn1c(SCC(=O)Nc2ccccc2OC)nc2c([nH]c3ccccc32)c1=O,6.94
13,COc1ccccc1CN1CCNC(=O)C1CC(=O)NCc1cn(C)nc1C (stereo not shown),11
14,Cc1nc(CS(=O)(=O)c2ccccc2)cc(Sc2ccccc2Cl)n1,-10.3
15,CCCCNC(=S)N(CCN(CC)CC)Cc1cc2cc3c(cc2[nH]c1=O)OCCO3,-1.01
16,Cc1c(-c2nn(C)c(=O)c3ccccc23)oc2ccc(F)cc2c1=O,7.43
17,COC(=O)c1ccccc1NC(=O)N1CCN(c2ccc(OC)cc2)CC1,-16.7
18,CC(NCCOCCOc1ccccc1)c1ccccc1 (stereo not shown),-9.56
19,CC1CCN(c2ccccc2N)CC1,5.45
20,CCNC(=S)N(CCN(CC)CC)Cc1cc2cc3c(cc2[nH]c1=O)OCCO3,6.16
21,CN1CCc2cccc(Cl)c2CC1.Cl,-5.93
22,COc1cccc(NC(=O)c2ccc3c(O)c(S(=O)(=O)c4ccccc4)c(=O)[nH]c3c2)c1,19.6

row,SMILES,"hERG current change (%, negative = inhibition) at 10uM [%]"
1,CC(=O)c1n[nH]nc1NC(=O)c1ccccc1,12.6
2,COc1ccc(C(=O)N2CCC(C(=O)Nc3ccc4c(c3)OCCO4)CC2)cc1,-44.2
3,COc1ccc(CN(C)C(=O)C2CCN(C(=O)Nc3ccccc3)CC2)cc1,-16.3
4,Cc1ccc(N2C(=O)C3Sc4[nH]c(=O)sc4C(c4ccccc4)C3C2=O)cc1 (stereo not shown),0.656
5,O=C(Cc1ccccc1)Oc1cccc(N2C(=O)CCC2=O)c1,17.1
6,O=C(NC1CCCc2ccccc21)c1ccc(Cl)nc1 (stereo not shown),-10.1
7,COc1ccc(-c2nc(NC(C)=O)sc2-c2ccccc2)cc1,34.7
8,O=S1(=O)[C@H]2C[C@@H]3C=C[C@@]2(CN1Cc1ccc(F)cc1)O3,-25.2
9,CCOc1ccccc1NS(=O)(=O)c1c(C)[nH]c(C)c1C(=O)N1CCCCC1,2.07
10,CCOC(=O)c1cnc(COc2ccc(OC)cc2)[nH]c1=O,6.82
11,COc1ccc(/C=C/C(=O)NCCSCc2ccco2)cc1OC,11.7
12,O=C(c1cc(Cl)nc2ccccc12)N1CCN(S(=O)(=O)c2ccccc2[N+](=O)[O-])CC1,-7.77
13,Cc1cccc(C)c1NC(=O)CNC(=O)c1ccc(S(=O)(=O)NCc2ccco2)cc1,8.87
14,COc1ccccc1CNC(=O)CN(C)S(=O)(=O)c1ccc2c(c1)c(=O)n(C)c(=O)n2C,0.355
15,CCC(CC)c1nnc(NC(=O)c2ccc([N+](=O)[O-])cc2)s1,-1.37
16,CCOC(=O)N1CCN(C(=O)CN2C(=O)CC(C)(C)S(=O)(=O)c3ccccc32)CC1,19.7
17,CCCCOc1cccc(C(=O)NC(=S)Nc2cccc(NC(=O)c3ccccc3Cl)c2)c1,-8.49
18,Clc1cccc(Cl)c1CSc1nnc(CN2CCOCC2)n1-c1ccccc1,-28.9
19,Cc1cccc(Cl)c1NC(=O)N1CCCN(c2nc3ccc(Cl)cc3s2)CC1,-20.6
20,CCOC(=O)c1c(S(=O)(=O)NCc2cccs2)c(C)n(C)c1C,-12.1
21,C=CCc1ccc2oc(C(=O)OCC)cc(=O)c2c1O,7.27
22,Cc1ccc2nc(NC(=O)CS(=O)(=O)Cc3ccccc3)sc2c1,19.3

row,SMILES,"hERG current change (%, negative = inhibition) at 10uM [%]"
1,COc1ccc([C@@H]2[C@@H]3C(=O)N(C(C)(C)C)C(=O)[C@@H]3[C@]3(Cc4ccc(Cl)cc4)C(=O)N(c4cccc(C)c4)C(=O)N23)cc1,22.1
2,COc1cccc(C2CC(c3ccc(NS(C)(=O)=O)cc3)=NN2C(=O)c2ccccc2)c1OC (stereo not shown),-64.4
3,CC(C)c1ccc(NC(=O)CSc2n[nH]c(=O)n2-c2ccc3c(c2)OCCO3)cc1,-2.99
4,CCn1c2ccc(Cl)cc2c2nc3ccccc3nc21,11.9
5,O=C1CC(c2ccccc2)CC(O)=C1C=NCCCN1CCOCC1 (stereo not shown),-9.92
6,CN1CCN(C(=O)c2ccc(N(Cc3ccc(Cl)cc3)S(C)(=O)=O)cc2)CC1,-12.4
7,O=C1CCc2cc(S(=O)(=O)N3CCN(Cc4ccc5c(c4)OCO5)CC3)ccc2N1,-70.1
8,COc1ccc(C/C(N)=N/OC(=O)Cc2ccc(OC)c(OC)c2)cc1,-23.8
9,Cc1ccc(NC(=S)N(CCN(C)C)Cc2cccs2)c(C)c1,-15.6
10,COc1ccc(C(O)CNc2ccc(C)cc2)cc1 (stereo not shown),-2.69
11,Cc1cc2occ(CC(=O)N(C)CC(=O)Nc3ccccc3C(F)(F)F)c2cc1C,-18
12,CC(C)Cc1nnc(NC(=O)CSc2nc(O)c(-c3ccccc3)c(=O)[nH]2)s1,60.8
13,O=C(OCC(=O)N1CCN(C(=O)c2ccco2)CC1)c1ccc(Cl)cc1,-38.7
14,CCOC(=O)c1[nH]cnc1C(=O)NCc1ccccc1,-16.2
15,C=CCC(Nc1ccccc1)c1cccc(OC)c1OC (stereo not shown),-1.92
16,CSc1nnc(SCC(=O)NC(=O)c2ccccc2)s1,15.9
17,O=C(COC(=O)CNC(=O)c1ccco1)Nc1ccccc1OC(F)F,11.6
18,CC1CCCCC1NS(=O)(=O)c1ccc(S(=O)(=O)NCc2ccncc2)cc1 (stereo not shown),15
19,COc1ccc(S(=O)(=O)N2CCOC23CCN(S(=O)(=O)c2ccc(Cl)cc2)CC3)cc1,-6.69
